# The full ranking holds about 110,000 compounds; the median of “z-score” is about -0.1, and the highest 2% start at about 2. The list shows a part of the results. Calls of active or inactive are those of the source.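 The calls were made as follows: active = z-score in the third read window above 3 or below -3; inactive = the rest.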
# Target: Metabotropic glutamate receptor 8 (Rattus norvegicus) (UniProt P70579)
# Experiment: mGluR8 Gi/Go-coupled signaling modulation – cell-based, rat, thallium flux, HTS, primary screen (AID 488969)
# Conditions: HEK293 rat mGluR8, GIRK (G protein-gated inwardly rectifying potassium channel) thallium flux, FluoZin2; at 10 µM; stronger effect = higher value; submaximal glutamate (EC20) added with thallium
# Sequence of UniProt P70579 (P70579 whole entry, looked up): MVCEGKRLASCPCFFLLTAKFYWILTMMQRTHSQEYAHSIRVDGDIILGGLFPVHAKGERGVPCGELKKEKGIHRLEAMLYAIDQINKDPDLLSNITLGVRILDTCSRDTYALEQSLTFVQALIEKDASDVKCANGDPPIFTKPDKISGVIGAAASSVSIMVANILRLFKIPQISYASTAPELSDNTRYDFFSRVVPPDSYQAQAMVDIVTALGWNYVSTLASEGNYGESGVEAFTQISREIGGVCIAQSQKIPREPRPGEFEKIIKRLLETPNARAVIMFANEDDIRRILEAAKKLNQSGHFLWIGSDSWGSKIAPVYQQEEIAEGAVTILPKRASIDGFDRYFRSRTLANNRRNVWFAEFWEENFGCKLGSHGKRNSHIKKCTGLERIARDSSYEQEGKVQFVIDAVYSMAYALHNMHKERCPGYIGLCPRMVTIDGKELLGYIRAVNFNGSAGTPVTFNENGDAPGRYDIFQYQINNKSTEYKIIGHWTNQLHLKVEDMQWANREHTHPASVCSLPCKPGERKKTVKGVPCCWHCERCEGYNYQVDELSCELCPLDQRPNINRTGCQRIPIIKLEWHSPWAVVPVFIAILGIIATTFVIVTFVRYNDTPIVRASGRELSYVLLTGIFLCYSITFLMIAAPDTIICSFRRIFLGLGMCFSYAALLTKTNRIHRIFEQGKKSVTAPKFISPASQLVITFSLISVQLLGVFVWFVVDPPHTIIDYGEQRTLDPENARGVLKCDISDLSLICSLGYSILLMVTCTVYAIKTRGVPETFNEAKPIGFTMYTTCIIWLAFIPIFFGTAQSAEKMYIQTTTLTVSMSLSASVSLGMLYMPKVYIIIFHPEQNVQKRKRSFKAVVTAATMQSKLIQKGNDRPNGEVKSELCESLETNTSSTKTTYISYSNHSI
row,Structure (SMILES),z-score
1,CC(c1ccco1)N(C(=O)C12CC3(C)CC(C)(CC(C)(C3)C1)C2)c1ccccn1 (centres undefined),-0.0164
2,O=C(Cn1c(C(F)(F)F)nc2ccccc21)c1ccccc1,-0.175
3,C/C(=N\OCC(=O)N/N=C/c1ccccc1)c1cccs1,0.716
4,CCCNC(=O)COC(=O)/C=C/c1ccc2c(c1)OCO2,-0.3
5,O=C(CSc1nnnn1-c1ccccc1)CSc1nnnn1-c1ccccc1,-0.288
6,O=C(CCCn1c(=O)[nH]c2cc(Cl)ccc2c1=O)NCCN1CCN(c2ccccc2)CC1,-0.459
7,CCn1c(COc2ccc(Cl)cc2)nnc1SCc1ccc(C#N)cc1,-0.00745
8,O=C(NC1CCCCC1)c1cccc(COCC(F)(F)F)c1,0.167
9,CN(C)C(=O)CSc1nc(-c2ccccc2)nc2c1CCCC2,-1.55
10,O=c1cc(N2CCOCC2)[nH]c(=O)n1-c1ccc(Cl)cc1,0.0794
11,CCC(=O)Nc1nc2ccc3nc(C)sc3c2s1,active: 3.6
12,COC(=O)c1sccc1NC(=O)Cn1cnc2c1c(=O)n(C)c(=O)n2C,0.0133
13,N=c1n(Cc2ccccc2)c2ccccc2n1CC(O)c1ccco1 (centres undefined),0.39
14,Cc1ccc(O)c(-c2cc(-c3ccccc3C)[nH]n2)c1,-0.442
15,CCOc1ccccc1CN1C(=O)c2ccccc2C1C(=O)NC(C)CC (centres undefined),-0.411
16,Nn1c(SCc2ccccc2)nnc1-c1ccccn1,0.00631
17,Cc1cc(C)cc(-n2c(C)cc(/C=C3\C(=N)N4N=C(CC(C)C)SC4=NC3=O)c2C)c1,0.807
18,CCOc1ccc(N=C2NC(=O)S/C2=C\c2ccc(Cl)cc2)cc1,-0.125
19,CCc1ccc2[nH]c(=O)c(CN(Cc3ccc(F)cc3)C(c3nnnn3CCN3CCOCC3)C(C)C)cc2c1 (centres undefined),-0.702
20,CC(=O)c1c(C)[nH]c(C(=O)CSc2nnc(-c3cccs3)n2Cc2ccccc2)c1C,-0.815
21,Cn1c(=O)c2c(nc(NCCCO)n2C/C=C/c2ccccc2)n(C)c1=O,-0.152
22,O=C(c1ccc(CS(=O)(=O)c2ccc(Br)cc2)o1)N1CCN(c2ncccn2)CC1,active: 3.31
23,COc1ccc(NCc2nnc(SCc3ccccc3)n2-c2ccc(OC)cc2)cc1,-0.342
24,CCCCSc1nnc2n(CCc3ccccc3)c(=O)c3c4c(sc3n12)COC(C)(C)C4,-0.42
25,CCc1ccc(NC(=O)C2CC(=O)N(C(C)C)C2)cc1 (centres undefined),-0.111
26,COc1ccc(C2C(C#N)=C(N)N(c3sc4c(c3C#N)CCCC4)C3=C2C(=O)CC(C)(C)C3)cc1 (centres undefined),0.455
27,CCCCOc1ccc(Cl)cc1CSc1nncn1N,0.538

row,Structure (SMILES),z-score
1,Brc1ccc2ncc(Br)cc2c1,0.57
2,CCc1nc2oc(C(=O)c3ccccc3)c(N)c2c2c1COC(C)(C)C2,0.63
3,CCC(C)NC(=O)CSc1nc(-c2cccs2)cc(C(F)(F)F)n1 (centres undefined),-0.151
4,CC(=O)N1CCN(c2cc(N3CCc4ccccc4C3)c(F)cc2[N+](=O)[O-])CC1,-0.214
5,CN1CCN(S(=O)(=O)c2ccc(NC(=O)Nc3cccc(Cl)c3)cc2)CC1,1.72
6,COc1ccc(NC(=O)NC23CC4CC(CC(C4)C2)C3)cc1OC,-0.136
7,COc1cccc(C(=O)Nc2ccc3nc(N4CCN(c5ncccn5)CC4)cc(C)c3c2)c1OC,0.275
8,O=c1c(Sc2ccccc2)c(C(F)(F)F)[nH]n1-c1ccccc1,-0.206
9,CC1NC2(C(=O)N(Cc3ccccc3)c3ccccc32)C2C(=O)N(c3ccccc3)C(=O)C12 (centres undefined),-0.542
10,Cc1nc(N)nc2c1CCCC2,0.62
11,COC(=O)C1C(=O)CC(C)(O)C(C(=O)OC)C1c1ccccc1F (centres undefined),-0.0913
12,S=C(Nc1ccccc1)Nc1ccc(Cl)cc1Cl,1.43
13,Cc1ccc(NC(=O)CSc2nnc(C)n2-c2ccccc2)cc1,-0.164
14,Cc1ccc(C(C2C(=O)CC(C)(C)CC2=O)C2C(=O)CC(C)(C)CC2=O)s1,-0.289
15,O=C(CCS(=O)(=O)c1cccs1)Nc1ccc(C(=O)NCc2ccccc2)cc1,-0.131
16,CN(C)c1ccc(NC(=S)NC(=O)/C=C/c2ccc(Cl)cc2)cc1,-0.112
17,Cc1ccc(SCCCn2cnc3ccccc3c2=O)cc1,-0.551
18,O=C(Nc1ccccc1)c1cccc(S(=O)(=O)N2CCCCC2)c1,-0.144
19,C(=C\c1cccc2ccccc12)/c1nnc(-c2cccs2)o1,-0.201
20,CC(C)(C)c1ccc(NC(=O)COC(=O)c2ccc(NS(=O)(=O)c3ccc(F)c(F)c3)cc2)cc1,-0.477
21,N#Cc1c(N)nc2c(c1N)CC(COc1ccccc1)O2 (centres undefined),-0.78
22,COc1ccc(NC(=O)CSc2nnc(-c3ccccc3)n2Cc2ccco2)cc1OC,-0.794
23,O=C1CC(c2cccs2)CC2=C1C(c1ccccc1)n1ncnc1N2 (centres undefined),-0.606
24,Cc1ncoc1C(=O)NCc1ccccc1Cl,-0.12
25,O=C1OC(C(=O)O)Cc2ccccc21 (centres undefined),0.465
26,Cc1cc2ncc(C(=O)Nc3ccccc3)c(C)n2n1,1.7
27,CCC1CCCCN1Cc1cc(OC)c(O)c([N+](=O)[O-])c1 (centres undefined),0.579

# Reference: PubChem BioAssay AID488969 (Vanderbilt High Throughput Screening Facility, 2010)
